{"source": "PubChem BioAssay AID624417", "about": "(National Center for Advancing Translational Sciences (NCATS), 2012)", "note": "Screen size: about 410,000 compounds; about 6,400 (1.6%) were called active. Inconclusive results, whose numbers are uncertain, are shown with a selection of clear calls. Calls follow the shape of the dose curve; as a rule, active = well fitted inhibition curve with a large enough effect; inconclusive = small, poorly fitted or top-dose-only effect; inactive = no such curve, though single readings can be large or run the other way. No potency is given beside an inconclusive call; the fits are too rough. Potency is read from the fitted curve at half-maximal effect; tags tell the direction and shape of the fitted curve."}
{"biological_target": "Glucagon-like peptide 1 receptor (Homo sapiens) (UniProt P43220)", "sequence (P43220 whole entry, looked up)": "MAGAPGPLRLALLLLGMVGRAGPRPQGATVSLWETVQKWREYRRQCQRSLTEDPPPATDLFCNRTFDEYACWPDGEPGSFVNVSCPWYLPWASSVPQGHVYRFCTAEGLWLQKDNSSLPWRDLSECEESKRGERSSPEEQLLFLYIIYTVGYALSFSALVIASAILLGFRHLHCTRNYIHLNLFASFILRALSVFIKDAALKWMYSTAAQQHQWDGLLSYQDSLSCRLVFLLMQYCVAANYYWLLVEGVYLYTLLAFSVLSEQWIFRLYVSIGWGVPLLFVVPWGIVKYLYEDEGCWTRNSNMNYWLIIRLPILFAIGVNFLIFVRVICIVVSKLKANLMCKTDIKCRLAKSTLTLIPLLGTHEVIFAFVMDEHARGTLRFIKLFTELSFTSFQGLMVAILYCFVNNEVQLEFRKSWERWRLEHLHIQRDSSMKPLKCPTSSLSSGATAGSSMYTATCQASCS", "experiment": "qHTS of GLP-1 Receptor Inverse Agonists (Inhibition Mode); also: nearly all actives have a fitted effect of over 55% in size", "conditions": "HEK293 GLP-1R CRE-luciferase, luminescence, 24 h, GLP-1R form is constitutively active; series mostly up to 38.3 µM", "summary_of_the_method": "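qHTS in 1536-well format: reporter HEK293 cells expressing constitutive GLP-1R activity in DMEM + 10% Nu serum, 24 hr with compounds at 37 deg C, luminescence read after 12 min with detection reagent.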"}
{"smiles": "C/C(=N/NS(=O)(=O)c1cc(C)ccc1C)c1c[nH]c2ccccc12", "Potency": "inconclusive [inhibitor, partial curve, poor fit]"}
{"smiles": "Cc1c(Cl)cccc1NC(=O)c1cc(-c2ccccc2O)n[nH]1", "Potency": "inconclusive [inhibitor, partial curve]"}
{"smiles": "CCOC(=O)c1c(C)[nH]c(C(=O)OCC(=O)N(C)CC(=O)Nc2ccccc2Cl)c1C", "Potency": "inactive"}
{"smiles": "COc1ccccc1NC(=O)Nc1ccc(F)c(F)c1", "Potency": "inconclusive [inhibitor, partial curve]"}
{"smiles": "O=C1N(Nc2ccccc2)C(c2ccc(Br)cc2)C12CCCC2", "note": "(stereo unspecified)", "Potency": "inconclusive [inhibitor, partial curve, poor fit]"}
{"smiles": "O=C(c1ccc(F)cc1F)N1CCCN(c2nc(-c3ccccc3)ns2)CC1", "Potency": "inconclusive [inhibitor, single point]"}
{"smiles": "CCc1ccc(S(=O)(=O)c2nnn3c2nc(NCCC(C)C)c2cc(Cl)ccc23)cc1", "Potency": "inactive"}
{"smiles": "S=C(c1cn(Cc2ccc(Br)cc2)c2ccccc12)N1CCOCC1", "Potency": "inconclusive [inhibitor, single point]"}
{"smiles": "Cc1c(N/N=C(\\C#N)C(=O)c2ccc(Cl)cc2)c(=O)n(-c2ccccc2)n1C", "Potency": "inconclusive [inhibitor, full curve, poor fit]"}
{"smiles": "CC(C)c1ccc(OCC(=O)N2CCc3ccccc3C2)cc1", "Potency": "inconclusive [inhibitor, single point]"}
{"smiles": "Cc1ccc(C(=O)N2C(=O)C(c3ccccc3)Oc3ccccc32)cc1", "note": "(stereo unspecified)", "Potency": "inconclusive [inhibitor, single point]"}
{"smiles": "Cc1cc2[nH]c3ccccc3c2c(C)n1", "Potency": "inconclusive [inhibitor, single point]"}
{"smiles": "O=C1c2ccccc2C(Nc2ccc(-c3nc4ccccc4[nH]3)cc2)N1Cc1ccco1", "note": "(stereo unspecified)", "Potency": "inconclusive [inhibitor, single point]"}
{"smiles": "CN1CCN(C(=O)/C(=C/c2cn(S(=O)(=O)N(C)C)c3ccccc23)NC(=O)c2ccccc2)CC1", "Potency": "inactive"}
{"smiles": "COc1cccc(CSCC(=O)NCCc2ccccc2)c1OC", "Potency": "inconclusive [inhibitor, full curve, poor fit]"}
{"smiles": "CC(C)C[C@H]1CNC(=S)N1CC1CCN(CCCC2CCCCC2)CC1", "Potency": "inconclusive [inhibitor, single point]"}
{"smiles": "COc1ccc(O)c(/C=N/NC(=O)CSc2nnc(C)n2-c2ccccc2)c1", "Potency": "inconclusive [inhibitor, single point]"}
{"smiles": "CCc1ccccc1NC(=O)CSc1nccn1C", "Potency": "inactive"}
{"smiles": "Clc1cccc(OCCOCCN2CCNCC2)c1Cl", "Potency": "inconclusive [inhibitor, partial curve, poor fit]"}
{"smiles": "CCOC(=O)N1CCC(NC(=O)CSCc2nc(-c3ccc(C)cc3)oc2C)CC1", "Potency": "inconclusive [inhibitor, partial curve, poor fit]"}
{"smiles": "Cc1cccc(-c2ncc(CN3CCCC(CO)(Cc4cccc(Cl)c4)C3)cn2)c1", "note": "(stereo unspecified)", "Potency": "inconclusive [inhibitor, partial curve, poor fit]"}
{"smiles": "CCOc1cccc(/C=N/NC(=S)Nc2cc(S(=O)(=O)N3CCOCC3)ccc2N2CCOCC2)c1O", "Potency": "active: 5.01 µM"}
{"smiles": "Clc1cccc(CNc2ccn3nc(-c4ccccc4)cc3n2)c1", "Potency": "inconclusive [inhibitor, single point]"}
{"smiles": "CC(NC(=O)c1cccnc1)C(c1cccs1)N1CCN(c2ccccc2F)CC1", "note": "(stereo unspecified)", "Potency": "inconclusive [inhibitor, full curve, poor fit]"}
{"smiles": "CCCc1ccc(C(=O)NNc2cccc(C)c2)cc1", "Potency": "active: 2.82 µM"}
{"smiles": "COc1cccc(/C=C/C(=O)OCC(=O)c2cc(C)n(CC3CCCO3)c2C)c1OC", "note": "(stereo unspecified)", "Potency": "inconclusive [inhibitor, partial curve]"}
{"smiles": "COc1ccc(N(C)C(=O)c2oc(=O)c3ccccc3c2-c2ccccc2)c(OC)c1", "Potency": "inconclusive [inhibitor, partial curve, poor fit]"}
{"smiles": "COc1cccc(-n2cc(CNCc3cn(C)nc3-c3ccccc3F)cn2)c1", "Potency": "inconclusive [inhibitor, partial curve, poor fit]"}
{"smiles": "OC(c1cc(-c2ccc(C(F)(F)F)cc2)nc(C(F)(F)F)c1)C1CCCCN1", "note": "(stereo unspecified)", "Potency": "inconclusive [inhibitor, full curve, poor fit]"}
{"smiles": "Oc1c(Cl)cc(Cl)cc1/C=N/c1nc(-c2ccc(Cl)cc2)cs1", "Potency": "inconclusive [inhibitor, single point]"}
{"smiles": "CC(C)n1ncc2c(C(=O)NCCc3ccc(F)cc3)cc(C3CC3)nc21", "Potency": "inconclusive [inhibitor, partial curve, poor fit]"}
{"smiles": "O=C(Cn1cnc2c(OCc3ccccc3)ncnc21)NCc1ccccn1", "Potency": "inactive"}
{"smiles": "O=C(Nc1ccccc1)c1cc(C2CCCCN2C(=O)CCCc2ccccc2)on1", "note": "(stereo unspecified)", "Potency": "inconclusive [inhibitor, single point]"}
{"smiles": "O=C(Cc1ccccc1)NC(=S)Nc1ccc(OC(F)F)cc1", "Potency": "inconclusive [inhibitor, single point]"}
{"smiles": "Nc1nonc1-c1nc2ccccc2n1CC(=O)Nc1ccc(F)cc1", "Potency": "inconclusive [inhibitor, full curve, poor fit]"}
{"smiles": "CCN=C1NN=C(c2ccc(C)cc2)CS1", "Potency": "inactive"}
{"smiles": "CCCCCC1CCC(C(=O)N2CCOCC2)CC1", "note": "(stereo unspecified)", "Potency": "inconclusive [inhibitor, single point]"}
{"smiles": "FC(F)Oc1ccc(NC(=S)N2CCN(Cc3ccccc3)CC2)cc1", "Potency": "inconclusive [inhibitor, partial curve]"}
{"smiles": "CCN(CC(=O)NCc1cccs1)S(=O)(=O)c1cccc(Br)c1", "Potency": "inconclusive [inhibitor, single point]"}
{"smiles": "Cc1c(C)c(C)c(S(=O)(=O)N2CCC3(CC2)OCCO3)c(C)c1C", "Potency": "inconclusive [inhibitor, single point]"}
{"smiles": "COc1ccc(-c2nc(SCC(=O)NCc3ccco3)c(-c3ccccc3)[nH]2)cc1OC", "Potency": "inconclusive [inhibitor, single point]"}
